Tests used:
[1] = target: 6His-UBN1(41–119) (human, UniProt Q9NPG3 41-119); assay: AUC
[2] = target: 6His-UBN1(41–175) (human, UniProt Q9NPG3 41-175); assay: AUC

- stoichiometry N [1]: 1
- stoichiometry N [2]: 1
B1: HIRA([…]), untagged (HIRA WD repeats) (domain or fragment)
chain: not shown

Source: PMC3320765 (Biochemistry, 2012)
